Test results published in PubChem BioAssay (NCATS).
“And” between values parts separate entries of the source, which are not always exact repeats. Equal values may be shown once. Inconclusive results, whose numbers are uncertain, are shown with a selection of clear calls. Where the call is inconclusive, the potency comes from a doubtful curve fit. Some compounds were tested as several samples or in several runs, with calls that do not always agree. The source made the active and inactive calls. Calls come from the whole dose curve; as a rule, active = well fitted inhibition curve with a large enough effect; inconclusive = small, poorly fitted or top-dose-only effect; inactive = flat fitted curve, though single readings scatter.

The compounds below were run against Phospholipid hydroperoxide glutathione peroxidase GPX4 (Homo sapiens) (UniProt P36969) (assay: Primary qHTS Assay for Inhibitors of Recombinant Selenoprotein Glutathione Peroxidase 4 (GPX4) (AID 1845192; note: nearly all actives have a fitted effect of over 65% in size)). Conditions: recombinant GPX4, GR-coupled NADPH fluorescence, 15 min; activity change, negative = inhibition: at 50 µM (top of the series); series mostly up to 50 µM.
Description: Assay Provider: Elias S.J. Arner MD PhD.
Department of Medical Biochemistry and Biophysics
Karolinska Institutet, Solna, Stockholm, Sweden
Selenoprotein glutathione peroxidases (GPX), like the ubiquitously expressed GPX1 and the ferroptosis modulator GPX4, enact their antioxidant activities by reducing hydroperoxides using glutathione. […] GPX1 and GPX4 inhibitors have thus shown promise as anti-cancer agents. Existing inhibitors are often promiscuous, or modulate GPX activity only indirectly, so novel direct inhibitors identified through screening against GPX1 and GPX4 could be valuable. Here, we developed optimized glutathione reductase (GR)-coupled GPX assays for the biochemical high-throughput screen (HTS) of almost 12,000 compounds with known mechanisms of action. Initial hits were triaged using a GR counter-screen, assessed for isoform specificity using a separate GPX2 assay, and were assessed for general selenocysteine-targeting activity using a thioredoxin reductase (TXNRD1) assay. With this suite of assays, we identified novel GPX1/GPX2- and GPX4-specific inhibitors and can here present a validated pipeline for future discovery research for selenoprotein-targeting agents.
SEQUENCE No. (e.g., 1, 2, 3, etc.); […] (e.g., Cells, Incubation, Reagent, etc.); VALUE; DESCRIPTION.
1; Reagent 1; 3 uL; 333.33 nM GPx4 enzyme or no enzyme control in 1536-well, black, solid Greiner assay plate.
2; Compound; 25 nL; Kalypsis pin tool (Wako USA) equipped with a 1536-well pin head.
3; Incubation; 30 min; room temperature.
4; Reagent 2; 1 uL; 500 nM GR, 5 mM GSH, 2.5 mM NADPH solution
5; Reagent 3; 1 uL; 2.5 mM CHP in 50% EtOH.
6; Detection; Fluorescence; ViewLux microplate reader, excitation 340 nm and emission 450 nm.
7; Incubation; 15 min; room temperature.
8; Detection; Fluorescence; ViewLux microplate reader, excitation 340 nm and emission 450 nm.
NOTES (numbers refer to Sequence numbers above)
1. 3 µL of 333.33 nM GPX4 and 0.016% BSA in assay buffer (50 mM Tris-HCl, 2 mM EDTA (pH 7.5), 150 mM NaCl) was added to columns 3-48 of 1536-well plates using a BioRAPTR Flying Reagent Dispenser (Let's Go Robotics (LGR), Carlsbad, CA). A no-enzyme control (0.01% BSA in TES assay buffer) was added to columns 1-2.
2. 25 nL, library and DMSO controls were added to each well with a pin tool (Kalypsys).
3. The assay plates were incubated for 30 minutes at room temperature.
4. 1 µL of master mix (500 nM glutathione reductase (GR), 5 mM reduced glutathione (GSH), 2.5 mM NADPH in assay buffer) was added.
5. 1 µL of cumene hydroperoxide (CHP) ([2.5 mM] in 50% EtOH) was then added within 5 minutes to initiate the reaction. Final concentrations were: 200 nM GPX4, 1 mM GSH, 0.5 mM CHP, 0.5 mM NADPH, 100 nM GR, 0.01% BSA.
6. Initial fluorescence readout (t=0) at 340/450 nm was measured using a ViewLux multimodal detector (PerkinElmer, Waltham, MA).
8. Endpoint fluorescence readout (t=15) at 340/450 nm was measured 15 min after room temperature incubation.
% is set by controls: 0 for no effect and ±100 for the full control effect; potency is the fitted concentration of half-maximal effect; tags give direction and shape of the fitted curve.

Sequence of UniProt P36969 (P36969 whole entry, looked up): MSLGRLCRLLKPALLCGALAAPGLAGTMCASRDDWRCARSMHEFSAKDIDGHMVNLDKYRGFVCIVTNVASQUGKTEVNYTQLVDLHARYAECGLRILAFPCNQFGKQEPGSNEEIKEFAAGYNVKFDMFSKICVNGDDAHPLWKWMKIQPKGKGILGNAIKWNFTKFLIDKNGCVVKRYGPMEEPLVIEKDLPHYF

Row | SMILES | Potency | activity change, negative = inhibition | outcome
1 | C=C(c1ccc(C(=O)O)cc1)c1cc2c(cc1C)C(C)(C)CCC2(C)C | active: 6.31 µM and active: 8.06 µM |  | 
2 | CCCc1nc2c(C)cc(-c3nc4ccccc4n3C)cc2n1Cc1ccc(-c2ccccc2C(=O)O)cc1 | inconclusive: 36 µM [inhibitor, partial curve, poor fit] |  | 
3 | c1cnc2c(c1)ccc1cccnc12 |  | inactive: -6.94% | 
4 | Oc1ccc(C2CCN(c3ccnc4ccccc34)CC2)cc1O |  | inactive: -20.9% | 
5 | Cc1[nH]cnc1CN1CCc2c(c3ccccc3n2C)C1=O | inconclusive: 8.91 µM [inhibitor, partial curve] |  | 
6 | CCc1ccc(/C=C2/SC(=S)NC2=O)cc1 | inconclusive: 28.6 µM [inhibitor, partial curve, poor fit] |  | 
7 | COc1ccnc2c1CCCCC2S(=O)c1nc2ccccc2[nH]1 (stereo not given) | inconclusive: 25.5 µM [inhibitor, single point] |  | 
8 | Oc1cccc(-c2c3nc(c(-c4cccc(O)c4)c4ccc([nH]4)c(-c4cccc(O)c4)c4nc(c(-c5cccc(O)c5)c5ccc2[nH]5)CC4)C=C3)c1 |  | inactive: -17.3% | 
9 | Cn1nnc2c(C(N)=O)ncn2c1=O | inactive |  | 
10 | Oc1cc(O)cc(/C=C/c2ccc(O)c(O)c2)c1 | inconclusive: 16.1 µM [inhibitor, partial curve] |  | 
11 | COc1cc2nc(-c3ccc(N4CCN(C)CC4)cc3)nc(NCCN3CCOCC3)c2cc1OC | inconclusive: 18 µM [inhibitor, partial curve, poor fit] |  | 
12 | Cc1cc(C)c(/C=C2\C(=O)Nc3ccccc32)[nH]1 | inconclusive: 7.18 µM [inhibitor, partial curve, poor fit] |  | 
13 | CC(C)c1ccc2oc3nc(N)c(C(=O)O)cc3c(=O)c2c1 | active: 12.8 µM and active: 8.06 µM |  | 
14 | OC[C@H]1O[C@H](n2cnc3c(N[C@H]4CCC[C@@H]4O)ncnc32)[C@H](O)[C@@H]1O |  | inactive: -10.7% | 
15 | O=C(O)Cc1cccc(OCCCN(Cc2cccc(C(F)(F)F)c2Cl)CC(c2ccccc2)c2ccccc2)c1 | inconclusive: 10.1 µM [inhibitor, partial curve] |  | 
16 | O=C(NCc1ccccc1)c1csc(Nc2ccncn2)n1 | inconclusive: 20.2 µM [inhibitor, partial curve] |  | 
17 | Oc1ccc(O)cc1 | inactive |  | 
18 | O=C1NC(=O)C(c2ccccc2[N+](=O)[O-])=C1Nc1ccc(O)c(Cl)c1 | inconclusive: 22.7 µM [inhibitor, partial curve] |  | 
19 | CC1=C[C@@H]2[C@@H]([C@@H](O)C[C@@]3(C)[C@H]2C[C@@H](C)[C@]3(O)C(=O)CO)[C@@]2(C)Cc3cnn(-c4ccccc4)c3C=C12 | inconclusive: 18 µM [inhibitor, partial curve] |  | 
20 | CC1=C(C)C(=O)C(C(CCCCCC(=O)O)c2ccccc2)=C(C)C1=O (stereo not given) | active: 11.2 µM and inconclusive: 20.2 µM [inhibitor, single point] |  | 

Row | SMILES | Potency | activity change, negative = inhibition | outcome
21 | Cc1c(NC(=O)c2ccc(C(C)(C)C)cc2)cccc1-c1cn(C)c(=O)c(Nc2ccc(C(=O)N3CCOCC3)cc2)n1 |  | inconclusive: -35% [inhibitor] | 
22 | O=c1c(O)c(-c2ccc(O)c(O)c2)oc2cc(O)ccc12 | inconclusive: 20.2 µM [inhibitor, partial curve] |  | 
23 | CCCCCCCCCCCC(=O)[O][Sn]([CH2]CCC)([CH2]CCC)[O]C(=O)CCCCCCCCCCC | inconclusive: 35.5 µM [inhibitor, single point] |  | 
24 | CCCNS(=O)(=O)Nc1ncnc(OCCOc2ncc(Br)cn2)c1-c1ccc(Br)cc1 | inconclusive: 14.1 µM [inhibitor, partial curve] |  | 
25 | CC1(C)S[C@@H]2[C@H](NC(=O)[C@H](N)c3ccccc3)C(=O)N2[C@H]1C(=O)O | inconclusive: 35.5 µM [inhibitor, single point] |  | 
26 | O=C1NC(=O)/C(=C/c2ccc(-c3ccc(F)cc3O)o2)S1 | inconclusive: 32.1 µM [inhibitor, single point] |  | 
27 | COc1ncc(-c2ccc3nccc(-c4ccnnc4)c3c2)cc1NS(=O)(=O)c1ccc(F)cc1F | inconclusive: 25.5 µM [inhibitor, partial curve, poor fit] |  | 
28 | Cc1ccc2nc(NCCN)c3ncc(C)n3c2c1 | active: 22.7 µM |  | 
29 | CC(=O)CC(c1ccccc1)c1c(O)c2ccccc2oc1=O (stereo not given) | inactive |  | 
30 | NC(=O)c1cccc2[nH]c(-c3ccc([C@H]4CCCN4)cc3F)nc12 | inconclusive: 16.1 µM [inhibitor, partial curve] |  | 
31 | O=c1c(-c2ccc(O)cc2)coc2cc(O)cc(O)c12 | inconclusive: 44.7 µM [inhibitor, partial curve] |  | 
32 | O=c1cc(-c2ccccc2)oc2cc(O)c(O)c(O)c12 | inconclusive: 22.7 µM [inhibitor, partial curve] |  | 
33 | Oc1ccc(OCc2ccccc2)cc1 | inconclusive: 25.5 µM [inhibitor, partial curve, poor fit] |  | 
34 | O=C(O)CCCCCC(=O)NN=C1CCCC1 |  |  | inactive
35 | COc1ccc(-c2cc(=O)c3c(O)cc(O)cc3o2)cc1O | inconclusive: 0.904 µM [inhibitor, partial curve, poor fit] |  | 
36 | CN(C)CCn1nnnc1SCC1=C(C(=O)O)N2C(=O)[C@@H](NC(=O)Cc3csc(N)n3)[C@H]2SC1 | active: 12.6 µM |  | 
37 | O=C1C[C@@H](c2ccc(O)cc2)Oc2cc(O)cc(O)c21 | inconclusive: 16.1 µM [inhibitor, partial curve, poor fit] |  | 
38 | O=C1Cc2cc(CCN3CCN(c4nsc5ccccc45)CC3)c(Cl)cc2N1 | active: 15.8 µM |  | 
39 | C[C@](N)(Cc1ccc(O)c(O)c1)C(=O)O | active: 14.3 µM |  | 
40 | CN(C)c1cc(NC(=O)CNC(C)(C)C)c(O)c2c1C[C@@H]1C[C@H]3[C@H](N(C)C)C(=O)C(C(N)=O)=C(O)[C@@]3(O)C(=O)C1=C2O | inconclusive: 7.08 µM [inhibitor, full curve] |  | 
